# The other results are listed elsewhere or left out. The main result of the screen is listed elsewhere. These columns were measured beside it and carry no call.
# Biological target: Voltage-dependent N-type calcium channel subunit alpha-1B (Homo sapiens) (UniProt Q00975)
# Assay: disruptors of CaV2.2 binding to Mint1 – biochemical, HTRF (AID 2073)
# Settings: HTRF protein-protein interaction, Mint1-CaV2.2; measured here: average of repeat tests; at 20 µM; stronger effect = higher value
# Chain of UniProt Q00975 (Q00975 whole entry, looked up): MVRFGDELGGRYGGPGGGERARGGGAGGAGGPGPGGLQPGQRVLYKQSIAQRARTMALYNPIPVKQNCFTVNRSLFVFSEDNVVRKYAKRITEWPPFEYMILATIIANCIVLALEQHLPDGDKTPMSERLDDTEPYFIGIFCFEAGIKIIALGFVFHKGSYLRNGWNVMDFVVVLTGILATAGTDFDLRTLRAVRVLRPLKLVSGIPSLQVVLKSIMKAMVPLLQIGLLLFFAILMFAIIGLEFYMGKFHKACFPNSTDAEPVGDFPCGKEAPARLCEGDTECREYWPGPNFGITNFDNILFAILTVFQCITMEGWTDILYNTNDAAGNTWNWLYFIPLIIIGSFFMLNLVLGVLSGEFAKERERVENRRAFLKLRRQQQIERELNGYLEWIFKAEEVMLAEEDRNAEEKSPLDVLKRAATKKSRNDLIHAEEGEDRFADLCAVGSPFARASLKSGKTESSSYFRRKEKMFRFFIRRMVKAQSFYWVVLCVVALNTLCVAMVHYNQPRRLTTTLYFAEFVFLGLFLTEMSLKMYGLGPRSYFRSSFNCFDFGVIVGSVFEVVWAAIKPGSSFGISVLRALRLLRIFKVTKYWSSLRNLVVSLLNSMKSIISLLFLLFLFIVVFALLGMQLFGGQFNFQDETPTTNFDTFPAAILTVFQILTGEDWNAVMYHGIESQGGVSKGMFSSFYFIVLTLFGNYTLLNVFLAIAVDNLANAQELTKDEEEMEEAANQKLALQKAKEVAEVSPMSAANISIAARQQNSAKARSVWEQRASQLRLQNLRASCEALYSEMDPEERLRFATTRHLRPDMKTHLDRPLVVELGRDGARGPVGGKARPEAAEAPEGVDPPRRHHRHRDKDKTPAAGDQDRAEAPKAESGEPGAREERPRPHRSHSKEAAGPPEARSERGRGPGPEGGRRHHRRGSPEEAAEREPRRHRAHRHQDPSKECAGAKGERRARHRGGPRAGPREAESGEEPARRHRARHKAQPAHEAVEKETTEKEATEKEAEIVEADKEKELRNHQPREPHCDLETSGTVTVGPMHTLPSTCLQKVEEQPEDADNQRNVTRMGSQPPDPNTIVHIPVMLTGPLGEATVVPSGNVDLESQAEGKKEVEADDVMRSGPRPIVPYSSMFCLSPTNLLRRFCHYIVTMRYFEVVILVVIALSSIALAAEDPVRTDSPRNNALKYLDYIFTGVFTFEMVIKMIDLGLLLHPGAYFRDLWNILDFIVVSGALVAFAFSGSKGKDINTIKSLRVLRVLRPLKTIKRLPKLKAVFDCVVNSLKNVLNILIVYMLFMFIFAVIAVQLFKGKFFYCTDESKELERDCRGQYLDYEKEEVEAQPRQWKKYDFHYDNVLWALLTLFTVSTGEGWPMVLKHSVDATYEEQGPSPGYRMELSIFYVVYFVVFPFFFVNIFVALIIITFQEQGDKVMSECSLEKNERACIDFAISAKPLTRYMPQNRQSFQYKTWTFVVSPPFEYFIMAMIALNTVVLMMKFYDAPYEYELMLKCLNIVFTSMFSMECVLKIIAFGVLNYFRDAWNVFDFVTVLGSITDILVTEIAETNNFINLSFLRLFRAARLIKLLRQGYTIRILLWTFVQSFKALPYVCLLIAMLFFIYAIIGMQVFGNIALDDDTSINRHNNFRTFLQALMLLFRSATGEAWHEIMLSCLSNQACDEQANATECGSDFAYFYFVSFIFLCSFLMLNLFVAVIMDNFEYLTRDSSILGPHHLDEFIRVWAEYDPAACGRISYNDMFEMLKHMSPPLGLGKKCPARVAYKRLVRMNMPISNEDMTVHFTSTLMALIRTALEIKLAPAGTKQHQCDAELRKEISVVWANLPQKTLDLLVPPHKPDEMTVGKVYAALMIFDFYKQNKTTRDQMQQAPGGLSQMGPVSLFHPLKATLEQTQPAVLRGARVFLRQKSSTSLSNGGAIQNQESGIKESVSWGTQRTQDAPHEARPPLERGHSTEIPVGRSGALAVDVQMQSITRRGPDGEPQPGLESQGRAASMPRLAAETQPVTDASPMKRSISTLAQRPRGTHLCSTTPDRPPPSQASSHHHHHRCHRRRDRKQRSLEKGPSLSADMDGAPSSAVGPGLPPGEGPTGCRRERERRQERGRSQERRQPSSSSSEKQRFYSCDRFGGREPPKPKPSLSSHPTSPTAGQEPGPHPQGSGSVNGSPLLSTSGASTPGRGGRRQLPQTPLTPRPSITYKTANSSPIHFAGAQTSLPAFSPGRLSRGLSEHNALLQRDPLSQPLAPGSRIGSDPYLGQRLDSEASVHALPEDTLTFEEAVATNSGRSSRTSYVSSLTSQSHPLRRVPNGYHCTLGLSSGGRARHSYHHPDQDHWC
row,Compound,inhibition [%]
1,Cc1c(C)c2c(OCC(=O)Nc3cccnc3)cc3c(c2oc1=O)CCC(C)(C)O3,60.3
2,Cc1cccn2c(=O)c(/C=N/O)c(Nc3ccccc3F)nc12,50.3
3,CCOC(=O)c1cc(-c2ccc(F)cc2)nc2c1c(=O)[nH]c(=O)n2Cc1ccccc1,46.7
4,CCOc1ccc(C(=O)Nc2ccc(-c3nc4ccccc4[nH]3)cc2)cc1[N+](=O)[O-],60.5
5,COc1ccc(-c2csc(NC(=O)CSc3nc(C)nc4sc(C(=O)O)c(C)c34)n2)cc1,92.4
6,N#C/C(C(=O)Nc1ccc(Cl)cc1)=C(/S)Nc1ccccc1,83.2
7,NS(=O)(=O)c1ccc(NC(=O)c2ccc(-c3ccccc3)cc2)cc1,53.9
8,N#Cc1nccnc1S(=O)(=O)c1cccs1,54.8
9,COc1cc2c(cc1OC)-c1cc(Nc3ccc(C(=O)O)cc3)nc(=O)n1CC2,70.1
10,O=C(CSc1nc2ccccc2n1CCc1ccccc1)c1ccc(O)c(O)c1,59
11,C=C(C)C(=O)Nc1cccc(C2=NOC3(C2)C[C@@H](C(N)=O)N(C(=O)/C=C/C=C/C)C3)c1 (some centres not stated),83.3
12,Cc1ccc(-c2nn(-c3ccccc3)cc2/C=C/C(=O)O)o1,36.6
13,Oc1cccc2cc3cccc(O)c3c(O)c12,54.3
14,COc1ccc2cc(N=Cc3nc(-c4ccc(C)cc4)oc3O)cnc2c1,59.4
15,COc1ccc(-n2c(O)c(/C=C3\C=Nc4ccccc43)c(=O)[nH]c2=O)cc1,65.8
16,O=C(O)c1cc(-c2ccco2)nn1-c1ccc(Cl)cc1,48.4
17,CCCCc1ccc(/C=C2\C(=O)c3ccccc3C(O)=C2C(=O)OCC)cc1,50.7
18,N#Cc1c(Nc2ccccc2Cl)s[nH]c1=O,68.6
19,Cc1cc(C)cc(-n2c3nc4ccccc4nc3c3c(=O)n(Cc4ccco4)cnc32)c1,44.3
20,CC(=O)Nc1ccc(NC(=O)c2cc(-c3ccc(C)c(C)c3O)n[nH]2)cc1,36.8
21,CC(C)c1ccc(/C=C2\SC(=O)N(CC(=O)NC3CCS(=O)(=O)C3)C2=O)cc1 (configuration not stated),53.4
22,CCN1C(=O)N/C(=C/c2ccc(C)o2)C1=O,56
23,COC(=O)c1ccc(COc2ccc(/C=N/Nc3nc(C)cc(=O)[nH]3)cc2)cc1,32.3

row,Compound,inhibition [%]
1,COc1cccc(/C=N/Nc2nn3cnnc3c3ccccc23)c1O,57.9
2,O=C(N/N=C/c1ccc([N+](=O)[O-])o1)c1cn2ccc3ccccc3c2n1,55.9
3,O=C1C=C(c2ccccc2)C(=O)N1Nc1ccccc1,65.1
4,COc1ccc(C(=O)Nc2cccc(/C=C(\CCC(=O)O)c3nc4ccccc4s3)c2)cc1,52.4
5,COc1cc(N=c2ssnc2Cl)cc(OC)c1OC,62
6,COc1cc(NC(=O)c2cccs2)ccc1NC(=O)c1cc2ccccc2o1,55.1
7,CCN(CC)Cc1cc(O)c(CN(CC)CC)cc1O,64.7
8,N#C/C(=C/c1ccc(N2CCCCCC2)o1)c1ccc(Cl)cc1,44.1
9,NS(=O)(=O)c1ccc(CCNC(=O)/C=C/c2ccc([N+](=O)[O-])cc2)cc1,44.2
10,C=C(C)C(=O)Nc1cccc(C2=NOC3(C2)C[C@@H](C(N)=O)N(C(=O)C2(C)CC2)C3)c1 (some centres not stated),52.1
11,NS(=O)(=O)c1ccc(CCNC(=O)CCS(=O)(=O)c2ccc(Br)cc2)cc1,61.9
12,CCSc1nnc(-c2sc3nnc(-c4ccccc4)c(-c4ccccc4)c3c2N)o1,63
13,CC(=O)Nc1ccc(C2=NNC(=Nc3cccc(S(=O)(=O)N(C)C)c3)SC2)cc1,43.9
14,NC(=S)n1[nH]c(-c2ccc([N+](=O)[O-])cc2)c(N=Nc2cccc([N+](=O)[O-])c2)c1=O,51.8
15,NS(=O)(=O)c1ccc(CNC(=O)Cc2cccs2)cc1,60.4
16,C=CCOc1ccc(/C=C2\SC(=S)N(N3CCOCC3)C2=O)cc1,71.7
17,COc1cc(N=c2ssnc2Cl)cc(OC)c1,69.9
18,Cc1ccnc(NC(=S)N2CCN(c3cccc(C(F)(F)F)c3)CC2)c1,85.4
19,CC(/C=C/c1ccco1)=N\NC(=O)c1cc(C)[nH]n1,51.2
20,COc1ccc(NC(=O)c2cc3ccc4c5ccccc5[nH]c4c3cc2O)cc1,62.3
21,CC(=O)Nc1ccc(C2=NNC(=Nc3ccc(S(=O)(=O)N4CCOCC4)cc3)SC2)cc1,63.2
22,Cc1cc(C(=O)O)ccc1-c1ccc(/C=C2\SC(=O)N(CC(=O)Nc3ccc4c(c3)OCO4)C2=O)o1,87.2
23,CCC1=NNc2cccc3c(OC)ccc1c23,43.5

row,Compound,inhibition [%]
1,CC(=O)c1ccc(NC(=O)CSc2ccsc2[N+](=O)[O-])cc1,47.9
2,CCCC(C(=O)NC1CCCC1)N(C(=O)Cn1nnc(-c2ccc(C)o2)n1)C1CCCC1 (configuration not stated),47.1
3,C=CCOC(=O)/C=C/C(=O)NC(N)=O,48.1
4,COc1cc(N2C(=O)C=CC2=O)c(OC)cc1Cl,65.4
5,CCCCn1c(=O)[nH]c2nc3cc(N)ccc3nc2c1=O,48.2
6,O=C(O)Cc1sc(Nc2ccc(F)cc2)nc1-c1cccs1,65
7,CCN(C(=O)CN1C(=O)S/C(=C\C=C\c2ccccc2)C1=O)C1CCS(=O)(=O)C1 (configuration not stated),44.3
8,CCOC(=O)Cn1c2ccc(OC)cc2c2nc3ccccc3nc21,52.1
9,Cc1ccc(/C=C/C(=O)N2CCN(c3ncccn3)CC2)o1,50
10,O=C1c2cccc3c(O)ccc(c23)C(=O)N1Cc1ccco1,51.9
11,O=C(Nc1ccc2oc(-c3cccc4ccccc34)nc2c1)c1ncn[nH]1,52
12,O=C(O)c1cccc(-n2cccc2/C=C2/NC(=O)N(c3ccc(Cl)cc3)C2=O)c1,94.7
13,CN1C(=O)C(Cl)(Cl)C(=O)c2ccccc21,92.8
14,Cc1cc(Cl)ccc1N=c1ssnc1Cl,75.2
15,CC(=O)Oc1ccc(N2C(=O)C3C(C2=O)C2(C)C=CC3(C)O2)cc1 (configuration not stated),66.3
16,COC(=O)c1cc(NC(=O)c2ccccc2)c(=O)oc1/C=C/Nc1ccc(Oc2ccccc2)cc1,33.4
17,COc1ccc(C(=O)NC(=S)Nc2ccc(NC(=O)c3ccco3)cc2)cc1[N+](=O)[O-],68.1
18,COc1ccc(CC(=O)Nc2ccc(-c3nnc(-c4ccc(C)cc4)o3)cc2)cc1,47.7
19,Cc1ccc(-c2cc(C(=O)N3CC(C)CC(C)C3)c3ccccc3n2)o1 (configuration not stated),41.4
20,Cc1nc2sc(C(=O)OC(C)C)c(N)c2c(C)c1C,56
21,CCOc1cc(/C=C(\C#N)C(=O)Nc2cccc(C(=O)O)c2)ccc1OCc1ccc(Br)cc1,84

# From PubChem BioAssay AID2073 (Sanford-Burnham Center for Chemical Genomics, 2009)
